Publication PMC4336329 (PLoS ONE, 2015)
The campaign covered roughly 310,000 compounds. About 2,200 (0.71%) showed an effect of 50% or more. Effects have a minus sign here. This is one part of the list.

The compounds below were run against human ether-à-go-go-related gene (hERG) potassium channel (human, UniProt Q12809) (assay: primary screen, population patch clamp on CHO cells stably expressing hERG).
Chain of human ether-à-go-go-related gene (hERG) potassium channel (Q12809 whole entry, looked up): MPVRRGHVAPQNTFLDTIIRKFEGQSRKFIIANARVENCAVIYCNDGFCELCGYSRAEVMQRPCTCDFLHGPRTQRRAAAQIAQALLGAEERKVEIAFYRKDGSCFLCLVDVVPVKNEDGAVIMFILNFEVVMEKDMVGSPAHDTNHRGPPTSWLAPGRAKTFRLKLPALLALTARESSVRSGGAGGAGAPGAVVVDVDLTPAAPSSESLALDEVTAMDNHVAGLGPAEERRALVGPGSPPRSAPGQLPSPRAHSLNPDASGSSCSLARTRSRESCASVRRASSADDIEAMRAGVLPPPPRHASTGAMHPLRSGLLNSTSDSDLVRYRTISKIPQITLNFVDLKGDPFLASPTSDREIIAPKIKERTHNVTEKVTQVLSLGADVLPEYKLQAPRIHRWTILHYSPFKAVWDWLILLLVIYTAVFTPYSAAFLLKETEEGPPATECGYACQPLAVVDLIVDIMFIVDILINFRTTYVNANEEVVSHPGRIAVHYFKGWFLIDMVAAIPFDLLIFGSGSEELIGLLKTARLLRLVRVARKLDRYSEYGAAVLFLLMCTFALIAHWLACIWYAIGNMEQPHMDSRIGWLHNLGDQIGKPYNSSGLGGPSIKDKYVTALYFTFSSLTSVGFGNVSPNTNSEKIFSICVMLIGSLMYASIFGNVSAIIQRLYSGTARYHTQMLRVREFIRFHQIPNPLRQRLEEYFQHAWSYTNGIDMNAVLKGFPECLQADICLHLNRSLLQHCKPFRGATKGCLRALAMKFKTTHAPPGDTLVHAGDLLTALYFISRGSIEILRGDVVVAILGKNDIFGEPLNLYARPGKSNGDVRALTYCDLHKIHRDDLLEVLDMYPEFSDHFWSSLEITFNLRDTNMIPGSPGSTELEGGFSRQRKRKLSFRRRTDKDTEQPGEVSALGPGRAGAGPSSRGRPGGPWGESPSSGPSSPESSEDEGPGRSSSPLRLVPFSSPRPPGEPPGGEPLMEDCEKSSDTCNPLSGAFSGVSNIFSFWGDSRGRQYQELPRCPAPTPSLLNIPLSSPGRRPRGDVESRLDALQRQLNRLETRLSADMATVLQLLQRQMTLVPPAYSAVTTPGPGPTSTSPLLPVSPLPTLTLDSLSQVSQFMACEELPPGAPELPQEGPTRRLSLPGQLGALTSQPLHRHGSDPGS

| Structure (SMILES) | hERG current change (%, negative = inhibition) at 1uM |
| --- | --- |
| O=C(COc1ccc2c3c(c(=O)oc2c1)CCC3)NCc1ccccn1 | 14.6% |
| NC(=O)CSc1ccc(S(=O)(=O)N2CCCCC2)cn1 | 5.73% |
| NC(=O)C1CCCN(C(=O)CCc2nnc(C3(c4ccc(Cl)cc4)CCC3)o2)C1 (stereo not drawn) | 9.52% |
| O=C(CSc1nnc(NC(=O)c2ccccc2Cl)s1)Nc1ccc2c(c1)oc1ccccc12 | 15.3% |
| CCOc1ccc(N(CC(=O)Nc2ccc(C)cc2C)S(C)(=O)=O)cc1 | 13.5% |
| CCOc1ccc(C(=O)Nc2ccccc2-c2ccccc2)cc1Cl | 12.6% |
| CC[C@]1(c2ccccc2)C(=O)N(C(=O)OC)N1C(=O)OC | 22.5% |
| COc1ccccc1C1CCN(C(=O)c2ccc(C(C)(C)C)cc2)CC1 | 18.3% |
| COCCCN1C(=O)C(=O)/C(=C(/O)c2ccc(S(=O)(=O)N3CCCCC3)cc2)C1c1cccc(OC)c1 (stereo not drawn) | 2.22% |
| O=C(COc1ccc(/C=N/NC(=O)c2ccccc2O)cc1)Nc1ccc([N+](=O)[O-])cc1 | 16.3% |
| Cc1nnc2c(SC(C)C)nc3ccccc3n12 | 5.53% |
| COc1ccc(S(=O)(=O)N(C)c2ccc(OCC(=O)Nc3cc(C)on3)cc2)cc1 | 2.34% |
| CCCCCOC(=O)Cn1c(SCC(=O)Nc2ccccc2)nc2c1c(=O)[nH]c(=O)n2C | -5.18% |
| COc1ccc(NS(=O)(=O)c2cccc(C(=O)NCC(c3ccccc3)N(C)C)c2)cc1 (stereo not drawn) | 6.81% |
| CN(C)S(=O)(=O)c1cccc(C(=O)Nc2cc(Cl)cc(Cl)c2)c1 | 8.63% |
| CCC(C)Sc1cc(C)c(C#N)c2nc3ccccc3n12 (stereo not drawn) | 5.61% |
| CN(C)S(=O)(=O)c1ccc(NC(=O)CN2CCC(Cc3ccccc3)CC2)cc1 | 3.5% |
| COc1cc([N+](=O)[O-])ccc1NC(=S)NNC(=O)c1ccc2c(c1)OCO2 | 14.4% |
| Nc1nc(=S)c2ncn(C3CCCC3)c2[nH]1 | 13.8% |
| N#Cc1ccc(C23CC4(C2)[C@H](CN(CC2CCCCC2)[C@@H]4c2ccccc2)C3c2ccc(Cl)nc2)cc1 (stereo partly drawn) | 6.07% |
| CCCCNS(=O)(=O)c1ccc(NC(=O)Cc2ccc(OC)cc2)cc1 | 7.06% |
| O=C(CCn1c(=O)sc2ccccc21)NCc1ccccc1 | 7.66% |
| COc1cc(/C=C/c2sc3ccccc3[n+]2CCCS(=O)(=O)[O-])ccc1O | -0.841% |
| CC(C)(C)NC(=O)C(c1ccncc1)N(C(=O)Cn1nnc(-c2cccs2)n1)C1CCCCC1 (stereo not drawn) | -0.931% |
| COc1cccc(/C=C/C(=O)N2CCN(c3ccccn3)CC2)c1 | 6.36% |
| Cc1cccc(N2CC(C(=O)Nc3ccc4c(c3)OCCO4)CC2=O)c1C (stereo not drawn) | 14.5% |
| O=C(CCCCCN1C(=O)c2cccc3cccc(c23)C1=O)NCCO | 9.8% |

| Structure (SMILES) | hERG current change (%, negative = inhibition) at 1uM |
| --- | --- |
| O=S1OCCN1c1ccccc1 (stereo not drawn) | 13.2% |
| CCCn1c(=O)c(C(=O)NCCc2ccccc2)c(O)c2ccccc21 | 13.1% |
| Cc1cc[n+](CCC(=O)O)c2ccccc12.[Br-] | 12.5% |
| Cc1cc(C)n(C2CC(=O)N(c3ccc(C)c(Cl)c3)C2=O)n1 (stereo not drawn) | 16.2% |
| COc1ccc(NC(=O)CN2CCC(NC(=O)c3ccco3)CC2)c([N+](=O)[O-])c1 | 4.57% |
| COc1ccccc1C1C(C#N)=C(N)Oc2cc(C)n(Cc3ccccn3)c(=O)c21 (stereo not drawn) | 3.9% |
| CCCCNC(=O)Nc1nnc(C(C)(C)C)s1 | 3.44% |
| COC(=O)c1cc2oc(C)cc2n1CC(=O)Nc1cc(C)cc(C)c1 | 16% |
| Cc1ccc(NC(=O)c2nc[nH]c2C(=O)Nc2ccc(C)cc2)cc1 | -1.71% |
| O=C(CC12CC3CC(CC(C3)C1)C2)N1CCOCC1 | 6.44% |
| COc1ccc(-c2csc(NC(=S)NC(=O)c3ccc4ccccc4c3)n2)cc1OC | 20.3% |
| O=C(CCS(=O)(=O)c1cccs1)Nc1ccc(C(=O)NC2CCN(Cc3ccccc3)CC2)cc1 | 7.84% |
| C=CCNC(=O)c1ccc(Sc2ccc(C)cc2)c([N+](=O)[O-])c1 | 14.6% |
| COc1cccc(OC)c1C(=O)NC(=S)NNC(=O)[C@H]1C[C@@H]1c1ccccc1 | 8.39% |
| O=[N+]([O-])c1ccc(-n2nncc2-c2ccc(Cl)cc2)cc1 | -60.4% |
| O=C1NC(=S)N/C1=C\c1ccccc1OCc1ccc(C(=O)O)cc1 | 3.03% |
| CC(C)(C)NC(=O)C(c1ccc(F)cc1)N(CC1CCCO1)C(=O)c1csnn1 (stereo not drawn) | 28% |
| COc1ccc2c(c1)OC[C@H]1[C@H]2N2C(=O)CN(C)C(=O)[C@@]2(C)[C@H]1c1ccccc1 | 13.5% |
| CC(NC(=O)CN1C(=O)NC(c2ccccc2)(c2ccccc2)C1=O)c1cccs1 (stereo not drawn) | 19.7% |
| CCCCOc1ccc(OCCNC(=O)c2ccco2)cc1 | 14.6% |
| CCCCOc1ccc(C(=O)NCC(=O)NCc2ccccn2)cc1 | 21.4% |
| Cn1c(COc2cccc3ccccc23)nnc1SCC(=O)OC1CCCCC1 | 8.98% |
| CC1(c2ccc(Cl)cc2)NC(=O)CS1 (stereo not drawn) | 15.4% |
| N#Cc1c(-c2ccccc2)cc(-c2ccccc2)nc1SCCC(=O)O | 13.9% |
| CCc1cc2c(N3CCN(c4nnc(CC)s4)CC3)ncnc2s1.Cl | -28.8% |
| CCc1noc(C)c1C(=O)Nc1nnc(C2CCCCC2)s1 | 3.54% |
| COc1ccc(N(C)S(=O)(=O)c2cccc(C(=O)NCC(c3cccs3)N(C)C)c2)cc1 (stereo not drawn) | -7.53% |
